The IC50 comes from the fitted curve, where viability falls to half of the control; fits outside the tested doses are given as limits. The AUC spans the tested range (256-fold, ending at the top dose) of the same fit; it is 1 without any effect and falls as sensitivity rises. A top dose marked as inferred was calculated from the reported fits. For some of these results: Drugs with an entry number were screened twice under separate entries, and the two screens often disagree.

Compound in one assay: NC(=O)c1ccc(N(C(N)=O)c2c(F)cccc2F)nc1-c1ccc(F)cc1F [VX-702]
Kind of assay: Viability of human cancer cell lines after 72 h of drug (GDSC screen). The following applies: top dose 2 µM; top dose inferred. How it is done:
(§1)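 Human cancer cell lines in 384-well plates, medium with 10% serum, drug for 72 h over a 256-fold dose range (nine 2-fold or five 4-fold steps up to the top dose). Adherent lines were fixed and stained with the nucleic acid dye Syto60, suspension lines read with resazurin; signal relative to control wells, capped at 0 and 100%. One two-parameter sigmoid per drug and line, fitted in a mixed model over all curves with the slope shared within a line.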
For the cell line TE-9 (oesophagus, adherent), the AUC is 0.987 and the IC50 (as a rule, the point on the concentration scale where inhibition reaches its midpoint) was > 2 µM.
On to TE-12 (oesophagus, suspension), for which the AUC worked out at 0.977 and the IC50 was > 2 µM.
Consider TGBC1TKB (biliary tract, adherent), for which the AUC amounted to 0.986 and the IC50 is > 2 µM.
Turning to TGW (neuroblastoma, adherent), the AUC stood at 0.99 and the IC50 is > 2 µM.
On to TK10 (kidney, adherent), for which the AUC was determined as 0.975 and the IC50 was > 2 µM.

Compound in a further assay: O=C(c1cc(Cc2n[nH]c(=O)c3ccccc23)ccc1F)N1CCN(C(=O)C2CC2)CC1 [Olaparib]
The description is as above. The following applies: top dose 5 µM; screen: GDSC drug entry 1017; top dose inferred. How it is done: as §1
As for SH-4 (melanoma, adherent), the AUC came to 0.974 and the IC50 was > 5 µM.
For SIMA (neuroblastoma, adherent), the AUC was found to be 0.985 and the IC50 was > 5 µM.
For the cell line SJSA-1 (bone, adherent), the AUC is 0.984 and the IC50 was > 5 µM.
Consider SK-LMS-1 (soft tissue, adherent), for which the AUC was found to be 0.976 and the IC50 was > 5 µM.
On to SK-MEL-1 (melanoma, suspension), for which the AUC was determined as 0.993 and the IC50 is > 5 µM.
As for SK-MEL-2 (melanoma, adherent), the AUC was 0.982 and the IC50 is > 5 µM.
As to SK-MM-2 (myeloma, suspension), the AUC was determined as 0.987 and the IC50 is > 5 µM.
Take SK-PN-DW (Ewing sarcoma, adherent): the AUC came out at 0.872 and the IC50 was > 5 µM.
With SLVL (B-cell lymphoma, suspension), the AUC was found to be 0.977 and the IC50 is > 5 µM.
For SNB75 (glioma, adherent), the AUC was 0.977 and the IC50 is > 5 µM.
In the case of SR (lymphoid neoplasm, suspension), the AUC amounted to 0.952 and the IC50 is > 5 µM.
In the case of SW684 (fibrosarcoma, adherent), the AUC stood at 0.982 and the IC50 was > 5 µM.
The like results for TE-1 (oesophagus, adherent) were, in that order, 0.979 and > 5 µM.
For TE-5 (oesophagus, adherent), the AUC turned out to be 0.984 and the IC50 is > 5 µM.
The like results for TE-8 (oesophagus, adherent) were, in that order, 0.975 and > 5 µM.
Regarding TE-9 (oesophagus, adherent), the AUC was 0.987 and the IC50 is > 5 µM.
As for TE-12 (oesophagus, suspension), the AUC was found to be 0.978 and the IC50 was > 5 µM.
Regarding TGBC1TKB (biliary tract, adherent), the AUC was found to be 0.989 and the IC50 was > 5 µM.
Turning to TGW (neuroblastoma, adherent), the AUC amounted to 0.992 and the IC50 was > 5 µM.
TK10 (kidney, adherent): the AUC was 0.982 and the IC50 was > 5 µM.

Staying with this assay, now noted: top dose 10 µM; screen: GDSC drug entry 1495.
SH-4 (melanoma, adherent): the AUC was 0.928 and the IC50 was > 10 µM.
Take SIMA (neuroblastoma, adherent): the AUC was determined as 0.947 and the IC50 is > 10 µM.
The like results for SJSA-1 (bone, adherent) were, in that order, 0.956 and > 10 µM.
Turning to SK-LMS-1 (soft tissue, adherent), the AUC came to 0.921 and the IC50 was > 10 µM.
In the case of SK-MEL-1 (melanoma, suspension), the AUC stood at 0.992 and the IC50 was > 10 µM.
For SK-MEL-2 (melanoma, adherent), the AUC is 0.946 and the IC50 is > 10 µM.
The corresponding values for SK-MM-2 (myeloma, suspension) are 0.983 and > 10 µM.
Consider SK-PN-DW (Ewing sarcoma, adherent), for which the AUC turned out to be 0.942 and the IC50 was > 10 µM.
Turning to SLVL (B-cell lymphoma, suspension), the AUC came out at 0.966 and the IC50 was > 10 µM.
As to SNB75 (glioma, adherent), the AUC stood at 0.959 and the IC50 was > 10 µM.
For SR (lymphoid neoplasm, suspension), the AUC turned out to be 0.954 and the IC50 is > 10 µM.
Turning to SW684 (fibrosarcoma, adherent), the AUC came to 0.977 and the IC50 was > 10 µM.
Consider TE-1 (oesophagus, adherent), for which the AUC was 0.978 and the IC50 was > 10 µM.
TE-5 (oesophagus, adherent): the AUC came out at 0.954 and the IC50 was > 10 µM.
As to TE-8 (oesophagus, adherent), the AUC was 0.898 and the IC50 was > 10 µM.
For TE-9 (oesophagus, adherent), the AUC was 0.954 and the IC50 was > 10 µM.
The like results for TE-12 (oesophagus, suspension) were, in that order, 0.975 and > 10 µM.
For the cell line TGBC1TKB (biliary tract, adherent), the AUC amounted to 0.978 and the IC50 was > 10 µM.
The corresponding values for TGW (neuroblastoma, adherent) are 0.988 and > 10 µM.
Turning to TK10 (kidney, adherent), the AUC came out at 0.98 and the IC50 is > 10 µM.

Compound in a further assay: O=C1NC(=O)c2c1c(-c1ccccc1Cl)cc1[nH]c3ccc(O)cc3c21 [Wee1 inhibitor 681640]
Described as above. The following applies: top dose 2 µM; top dose inferred. How it is done:
as §1
With SH-4 (melanoma, adherent), the AUC worked out at 0.868 and the IC50 was > 2 µM.
SIMA (neuroblastoma, adherent): the AUC stood at 0.985 and the IC50 was > 2 µM.
Turning to SJSA-1 (bone, adherent), the AUC stood at 0.916 and the 50% inhibitory concentration (IC50) was > 2 µM.
The like results for SK-LMS-1 (soft tissue, adherent) were, in that order, 0.916 and > 2 µM.
Regarding SK-MEL-1 (melanoma, suspension), the AUC was found to be 0.993 and the IC50 is > 2 µM.
As for SK-MEL-2 (melanoma, adherent), the AUC is 0.959 and the IC50 was > 2 µM.
In the case of SK-MM-2 (myeloma, suspension), the AUC stood at 0.987 and the IC50 is > 2 µM.
The corresponding values for SK-PN-DW (Ewing sarcoma, adherent) are 0.949 and > 2 µM.
With SLVL (B-cell lymphoma, suspension), the AUC is 0.974 and the IC50 is > 2 µM.
On to SNB75 (glioma, adherent), for which the AUC came out at 0.973 and the IC50 is > 2 µM.
The corresponding values for SR (lymphoid neoplasm, suspension) are 0.859 and 1.4 µM.
For SW684 (fibrosarcoma, adherent), the AUC was 0.974 and the IC50 was > 2 µM.
Regarding TE-1 (oesophagus, adherent), the AUC was 0.922 and the IC50 was > 2 µM.
TE-5 (oesophagus, adherent): the AUC was 0.98 and the IC50 was > 2 µM.
The like results for TE-8 (oesophagus, adherent) were, in that order, 0.929 and > 2 µM.
With TE-9 (oesophagus, adherent), the AUC was 0.927 and the half-maximal inhibitory concentration (IC50) was > 2 µM.
Regarding TE-12 (oesophagus, suspension), the AUC stood at 0.932 and the half-maximal inhibitory concentration (IC50) is > 2 µM.
The corresponding values for TGBC1TKB (biliary tract, adherent) are 0.965 and > 2 µM.
TGW (neuroblastoma, adherent): the AUC was 0.946 and the IC50 is > 2 µM.
For TK10 (kidney, adherent), the AUC is 0.944 and the IC50 is > 2 µM.

The values are drawn from the supplement of paper PMC4967469.
